These results are taken from patent publication US20260207533A1, “METHODS FOR TREATING VARIOUS CONDITIONS AND INDICATIONS WITH AGONISTS AND ANTAGONISTS” (CuraSen Therapeutics, Inc., priority 2022, published 2026).

The test system of one test is healthy volunteers. The test can be described thus: Cerebral blood flow / cerebral perfusion by ASL MRI in healthy subjects.
The next test deals with healthy subjects. Briefly: Visual verbal learning test (VVLT). Format: in vivo, human. The method, then: The visual verbal learning test (VVLT) is a test for learning and memory (de Haas 2009). Subjects are presented 30 words on a screen, one at a time, for 1 second with a 1-second interval between words over a total of 1 minute. This is repeated in 3 trials. After each trial, subjects are asked to recall as many words as they can. After the third trial, there is a delay of 2.5 hours and subjects are then tested once for delayed recall. […] The effect for clenbuterol is an improvement in approximately 1.5 to 2 correctly recalled words, which is clinically meaningful. Since this was a crossover study, everyone who completed Part A was dosed with the 3 agents plus placebo.

Structures are written as SMILES.

Take `CC(C)(C)NCC(O)c1cc(Cl)c(N)c(Cl)c1` (stereo not shown) [clenbuterol]: the figures for the “cerebral perfusion as measured by CBF” value in the test with healthy volunteers (clenbuterol dose of 40 μg) and with healthy volunteers (clenbuterol doses below 30 μg) were “minimal increase” and “do not produce significant cerebral perfusion increases”, respectively. The “cerebral perfusion by ASL MRI” value in the test on healthy volunteers (doses of 80 and 160 μg clenbuterol) is reported as “robust, global increase in perfusion”. The “improvements in perfusion in brain areas relevant to neurodegenerative disorders” value in the test with healthy volunteers (doses of 80 and 160 μg clenbuterol, ASL MRI) was roughly 25%. In addition, the “increase in hippocampal perfusion, average” value in the test with healthy volunteers (single dose 80 μg clenbuterol, 6 healthy subjects aged 44 to 52, ASL MRI) worked out at 25%. In addition, the “cerebral blood flow (CBF) relative to baseline” value with healthy volunteers (single dose clenbuterol 30 to 160 μg, tracked over 3 days) is “robust global increase in cerebral blood flow”. Besides, the “VVLT immediate recall (Trial 1)” value in the test with healthy subjects (crossover study versus placebo) is “improved performance in VVLT”. Further, in the test with healthy subjects (delay of 2.5 hours, crossover study versus placebo), the VVLT delayed recall was “improved performance in VVLT”. In addition, in the test on healthy subjects (single dose of 160 μg clenbuterol, preliminary data), the “cognition as measured by word recall” value was “improves cognition”.
As for `CC(C)NCC(O)COc1cccc2[nH]ccc12` (stereo not shown) [pindolol], in the test on healthy volunteers (single dose pindolol 60 mg), the “cerebral blood flow relative to base line” value is recorded as “decrease in cerebral blood flow”.
